# The list shows a part of the results. Sequences were assembled here from the parent chain. Inactive controls read about 0.05.
# B1: TEV protease; numbered along this chain (parent)
# chain: MGESLFKGPRDYNPISSSICHLTNESDGHTTSLYGIGFGPFIITNKHLFRRNNGTLVVQSLHGVFKVKDTTTLQQHLVDGRDMIIIRMPKDFPPFPQKLKFREPQREERICLVTTNFQTKSMSSMVSDTSCTFPSGDGIFWKHWIQTKDGQCGSPLVSTRDGFIVGIHSASNFTNTNNYFTSVPKNFMELLTNQEAQQWVSGWRLNADSVLWGGHKVFMVKPEEPFQPVKEATQL
# Variants of: B1
# Assay: raw area under fraction-flipped curve 0-4 h after induction (AUC4h, not background-subtracted), DNA-recorder readout of cleavage of the substrate (dimensionless); higher = more cleavage of the substrate by the protease variant
# Settings: temperature: 34 °C; time window: 0-4 h after rhamnose induction
# Procedure: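 In vivo DNA recorder in E. coli TOP10(DE3) ΔrhaA at 34 °C. Each TEVp single-site mutant (parent TEVp 0) is paired with a single-site variant of the 7-mer TEVs (canonical ENLYFQ|S). The substrate sits between flexible linkers in a Bxb1-sfGFP-TEVs-SsrA fusion, so cleavage stabilises Bxb1 and speeds flipping of a recombination array, read by NGS. The value is the raw area under the fraction-flipped curve over 0-4 h after rhamnose induction (AUC4h), with ≥20 reads per time point. It is not background-subtracted; inactive controls average about 0.047.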
# 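Also: Bxb1 expression induced with 0.2% (w/v) L-rhamnose at OD600 near 0.5, cultures sampled hourly, flipped fraction per protease–substrate barcode pair counted by paired-end Illumina sequencing.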
Variant,area with substrate ENLYFQA,area with substrate ENLYFQC,area with substrate ENLYFQD,area with substrate ENLYFQE,area with substrate ENLYFQG,area with substrate ENLYFQH,area with substrate ENLYFQI,area with substrate ENLYFQN,area with substrate ENLYFQP,area with substrate ENLYFQR,area with substrate ENLYFQS,area with substrate ENLYFQT,area with substrate ENLYFQW,area with substrate ENLYFQY,area with substrate ENLYFQF,area with substrate ENLYFQK,area with substrate ENLYFQL,area with substrate ENLYFQM,area with substrate ENLYFQV,area with substrate ENLYFQQ
F41G,0.0734,0.0826,0.0432,0.0558,0.0716,0.0594,0.0338,0.0734,0.0521,0.0422,0.0747,0.0486,0.0322,0.0771,–,–,–,–,–,–
F41P,0.0479,–,0.0524,–,0.0193,–,0.0469,0.038,0.0423,0.0532,0.0491,–,0.0541,0.0581,0.0553,0.0485,0.0463,0.0483,0.0632,–
F41A,0.078,0.099,0.0462,–,0.0918,0.0705,0.0604,–,–,0.0676,0.0828,0.0604,–,0.0576,–,0.0636,0.0354,0.0925,–,–
V67W,0.0768,0.0983,0.0698,–,0.0797,–,0.0557,0.0801,–,0.0536,0.0997,0.0557,0.0436,0.0754,–,0.0452,0.0544,0.0805,0.0597,–
V67S,0.0761,0.0977,0.0575,–,0.0773,0.0764,0.0644,0.0663,0.0491,0.0575,0.0847,0.0578,0.0601,0.0593,–,0.0645,0.0452,0.0689,0.0472,–
N45E,0.066,0.0498,–,–,0.0653,0.0544,0.0691,0.0581,0.0543,0.0558,0.0584,0.0616,0.0515,0.0706,–,0.0556,0.0527,0.0519,0.0521,0.0588
F65N,0.107,0.115,0.0496,0.0619,0.0961,0.0877,–,0.0781,0.0656,–,0.0943,0.0612,0.0622,0.0895,0.0793,–,0.0507,0.08,–,–
I43H,0.0435,0.0337,0.0399,–,0.0449,–,0.0405,0.0411,0.0408,0.0423,0.0432,0.0523,–,0.0356,0.0219,–,0.0517,–,–,0.0298
G63R,0.0905,0.099,0.0714,–,0.105,0.075,–,–,–,0.0729,0.0886,0.065,–,0.0683,0.0637,–,0.0495,0.0829,–,–
G63T,0.09,0.114,0.0974,0.0631,–,–,0.0643,–,–,0.0612,0.0926,0.0669,0.0628,0.085,–,0.061,0.046,0.0887,0.0562,0.0541
G63L,0.0803,0.0983,–,–,0.0798,0.0723,–,0.0649,0.06,0.0539,0.0871,–,0.0662,0.0491,0.0707,0.0516,0.0618,0.0714,–,0.0684
N52Q,0.0521,0.0806,–,0.0541,0.0793,0.0619,–,0.0664,0.0639,0.0503,0.079,0.0566,0.0442,–,–,0.0661,0.0637,0.067,–,–
G39Y,0.0392,0.0417,0.0475,–,0.0525,0.0357,0.045,0.0452,0.0477,0.0411,0.0465,0.0424,–,–,0.0499,0.036,–,0.0495,–,–
G39L,0.0293,0.0364,–,–,0.0385,–,0.0094,0.0234,0.0354,0.0434,0.043,0.0642,0.0496,–,0.0437,0.0364,0.0314,0.0358,0.0144,–
G39F,0.0432,0.0403,0.0433,–,0.0391,0.0421,0.0473,0.0367,0.0426,0.0394,0.0447,0.0476,0.0306,0.0397,0.0285,0.0401,0.0537,0.0318,0.0338,0.0391
G54W,0.0625,–,0.0525,0.0536,–,0.0587,–,0.0562,0.0526,0.0619,0.0691,–,0.0627,0.113,–,–,–,–,0.045,–
G54C,0.0933,0.0806,0.0544,0.066,0.0984,–,–,0.0274,0.0642,–,0.0718,0.0803,0.0657,0.0563,0.0466,0.0635,0.0663,0.0661,0.0557,–
G54A,0.074,0.0724,0.0227,–,–,0.0616,0.0557,0.0706,–,0.0747,0.0714,0.0564,0.0543,0.0772,0.0581,0.0493,0.0698,0.0749,0.0635,0.0589
G54M,0.0616,0.0606,–,–,0.0657,0.0776,0.0478,–,0.0483,0.0478,0.0719,0.0545,0.0624,0.077,0.0651,0.0539,0.0599,0.0692,0.038,–
T44N,0.044,0.0544,0.0462,–,–,0.0367,0.0492,0.0416,–,0.0542,0.0461,0.0454,0.0498,–,–,0.048,0.0541,0.0519,0.0512,–
T44I,0.0679,0.0649,0.0544,–,–,0.0517,–,0.0537,0.0598,0.0605,0.0594,0.0592,0.0666,–,0.0517,0.0553,0.0555,–,0.0576,–
H29I,0.0929,0.11,–,–,0.102,–,–,0.0979,–,0.0495,0.1,0.0733,–,0.0859,–,0.0781,0.0712,0.0933,0.0412,–
H29M,0.109,0.126,0.0799,–,0.151,–,0.0531,–,–,0.0643,0.108,0.0924,0.056,0.127,–,0.0659,0.0584,0.0897,–,0.0805
H29P,0.0944,0.0765,0.057,–,–,–,0.061,0.0693,0.0472,0.0536,0.0839,–,0.0724,–,0.0909,0.0549,0.0638,0.0886,0.0661,0.0733
